The text below walks through data of paper PMC3750179.

The chains behind the UniProt entries cited, without tags or fusion partners.
UniProt Q6WVG3: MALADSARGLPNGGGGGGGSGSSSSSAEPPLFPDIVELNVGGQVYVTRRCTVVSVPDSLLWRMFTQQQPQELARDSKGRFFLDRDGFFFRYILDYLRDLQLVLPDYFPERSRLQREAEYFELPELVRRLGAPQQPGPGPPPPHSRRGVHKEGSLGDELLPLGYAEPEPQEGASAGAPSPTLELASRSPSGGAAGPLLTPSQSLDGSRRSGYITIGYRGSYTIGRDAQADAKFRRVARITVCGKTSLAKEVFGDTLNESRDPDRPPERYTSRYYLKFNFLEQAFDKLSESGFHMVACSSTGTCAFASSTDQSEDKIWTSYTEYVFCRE

For test [1], the target named is T1, HA-GABAB2-YFP1 (UniProt O88871).
T1 sequence: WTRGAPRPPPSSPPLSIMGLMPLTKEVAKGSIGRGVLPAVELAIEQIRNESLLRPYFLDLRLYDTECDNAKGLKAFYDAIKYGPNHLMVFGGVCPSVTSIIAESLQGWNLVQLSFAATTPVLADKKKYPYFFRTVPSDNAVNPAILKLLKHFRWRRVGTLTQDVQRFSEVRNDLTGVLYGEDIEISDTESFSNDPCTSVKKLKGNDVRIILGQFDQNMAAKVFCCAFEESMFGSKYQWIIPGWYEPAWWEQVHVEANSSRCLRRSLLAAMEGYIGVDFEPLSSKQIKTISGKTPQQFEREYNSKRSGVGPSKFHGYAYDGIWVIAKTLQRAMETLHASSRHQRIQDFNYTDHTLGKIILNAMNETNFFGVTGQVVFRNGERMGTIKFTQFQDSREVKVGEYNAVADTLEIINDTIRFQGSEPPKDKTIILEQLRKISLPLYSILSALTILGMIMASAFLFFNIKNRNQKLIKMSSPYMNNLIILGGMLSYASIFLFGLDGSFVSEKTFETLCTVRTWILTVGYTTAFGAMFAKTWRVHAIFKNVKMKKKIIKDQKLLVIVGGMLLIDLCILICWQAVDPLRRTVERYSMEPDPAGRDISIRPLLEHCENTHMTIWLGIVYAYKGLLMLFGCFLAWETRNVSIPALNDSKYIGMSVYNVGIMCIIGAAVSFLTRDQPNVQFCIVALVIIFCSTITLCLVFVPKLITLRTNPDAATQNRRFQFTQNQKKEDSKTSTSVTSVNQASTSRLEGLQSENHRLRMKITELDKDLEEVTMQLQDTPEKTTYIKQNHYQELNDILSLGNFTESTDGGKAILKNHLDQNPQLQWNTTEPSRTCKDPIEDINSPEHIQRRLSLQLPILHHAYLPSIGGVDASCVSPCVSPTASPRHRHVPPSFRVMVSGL
The experiment in a line: split reporter; YFP protein fragment complementation (YFP1 and YFP2 at the C termini) in transfected COS-1 cells, confocal microscopy, ER marked with anti-calnexin.

The target in another test is T2, HA-GABAB2Y902A-YFP1 (UniProt O88871).
T2 sequence: T1 sequence with Y862A
Described as above.

The target of test [2] is T1, HA-GABAB2-YFP1. Kind of test: co-IP; co-immunoprecipitation of the YFP-fragment fusions, data not shown.
For a further test, the target named is T3, HA-GABAB2 (UniProt O88871).
T3 sequence: T1 sequence
Kind of test: pull-down; surface biotinylation of transfected COS-1 cells, 120 min at 37 °C to allow internalization, surface biotin removed with glutathione, biotinylated proteins purified with NeutrAvidin-Sepharose, Western blot; the text calls it co-immunoprecipitation.

The target in the next test is FLAG-KCTD12 (UniProt Q6WVG3). The experiment in a line: co-IP; COS-1 cells pulse-labelled with [35S]methionine for 15 min; lysate (150 mM NaCl, 10 mM Tris-HCl, 5 mM EDTA, 1.5% Nonidet P-40) precipitated with mouse anti-FLAG and protein A-agarose overnight at 4 °C; autoradiography cross-correlated with Western blots. Background: In western blotting, separated proteins are transferred to a membrane and probed.

Residue numbers refer to the chain shown, from its start. No constants are given. Whether binding was seen depends on the method and setting. Binding seen in cells or lysates may run through a third protein. Some entries that bind do so weakly or less than the wild type. Where a sequence is shown, tags or fusion partners need not be part of it.

As for “FLAG-KCTD12-YFP2 (from UniProt Q6WVG3 1-327)”, the values for the binding entry in the test with HA-GABAB2-YFP1 [1], in the test with HA-GABAB2Y902A-YFP1 and with HA-GABAB2-YFP1 [2] were “binds”, “no binding” and “binds”, respectively. As to FLAG-KCTD12 (from UniProt Q6WVG3 1-327), in the test with HA-GABAB2, the binding entry is listed as “binds”.

B1: Myc-GABAB2 (receptor, UniProt O88871 41-940)
chain: T1 sequence
Take B1: in the test with FLAG-KCTD12, the binding result is recorded as “binds”.
